At least one peptide structure holds a part that was inferred or is arguable (an end, a ring closure or a residue).
Key:
[1] = test system: Acinetobacter baumannii isolates resistant to classical antibiotics; type: cell-based; settings: geometric mean over 20 strains
From the text: Thus, shortening the number of carbon atoms between the side-chain amino group and the α-carbon atom from four (Lys) to one (diaminopropionic acid) had very little effect on antibacterial activity (Table 2). We also determined the antibacterial activity of our five AMPs against 20 additional Acinetobacter baumannii isolates from four continents, 12 different countries and 17 different cities that were resistant to 18 different antibiotics. […] Thus, it is very clear that changing the type of positively-charged residue on the polar face of these AMPs had very little effect on the antibacterial activities.

[2] = Peptide hydrophobicity by RP-HPLC retention time; type: physicochemical; settings: RP-HPLC retention time at pH 2, 25° C.
Procedure: Column: Zorbax 300 SB-C8, 150×2.1 mm ID, 5-μm particle size, 300-Å pore size; conditions, linear AB gradient (0.25% acetonitrile/min) at a flow-rate of 0.3 ml/min, where eluent A was 20 mM aq. TFA and eluent B was 20 mM TFA in acetonitrile and the temperature was 25° C. The sequences of the ten peptides (with seven peptides containing Lys specificity determinants at positions 13 and 16 of the non-polar face (see FIG. 1) are shown in Table 1G. Peptide denotions in FIG. 4 have been abbreviated from those shown in Table 1G; for example, D87(Lys1-6 Arg-1) has been shortened to D87(6 Arg-1). For the peptides without specificity determinants, we have added A13/A16 to the peptide denotions. It is interesting that the Dab containing peptides are more hydrophilic than the Dap containing peptides even thought the Dab containing peptides have an additional carbon atom per Dab residue.
Retention behavior in reversed-phase chromatography is an excellent method to represent overall peptide hydrophobicity. Retention times of amphipathic α-helical peptides are highly sensitive to the conformational status of the peptides upon interaction with the hydrophobic surface of the column matrix. The non-polar face of amphipathic α-helical peptides represents the preferred binding domain for interaction with the hydrophobic matrix of the reversed-phase column. In this study, the observed peptide retention times are relative hydrophobicities because they are dependent on the TFA concentration and organic solvent in the mobile phase, gradient rate, column temperature, flow-rate and column used. The three AMPs without specificity determinants have hydrophobic residues on the non-polar face of the helix (8 Leu residues in two clusters (L2, L4, L6 and L9 in the N-terminal cluster and L17, L20, L21 and L24 in the C-terminal cluster and 2 Ala residues at positions 13 and 16 between the two clusters of Leu residues (FIG. 2). This hydrophobic surface is the preferred binding domain for binding to the hydrophobic surface on the column matrix, however, the overall hydrophobicity is also affected by the composition of residues on the polar face which contains six positively-charged residues (FIG. 2). The amino acid composition on the polar face has the positively-charged residues in the same positions (3, 7, 11, 18, 22 and 26) but varies the type of positively-charged residue from either six Arg, Lys, Orn, Dab or Dap residues. The seven AMPs with specificity determinants have two Lys residues between the two hydrophobic clusters (FIG. 2), decreasing the overall hydrophobicity. Thus, the overall hydrophobicity of the five AMP with +9 charge varied from 115.8 to 143.2 min, considerably less than the peptides without specificity determinants which varied from 158.3 to 188.7 min (FIG. 4 and Table 6). All ten peptides used in this study could be readily separated by reversed-phase chromatography with the seven peptides with specificity determinants being much more hydrophilic than the three control peptides without specificity determinants (FIG. 4). The type of positively-charged residue on the polar face has a dramatic effect on the overall hydrophobicity with the Dab residue being more hydrophilic (less hydrophobic) than the Dap residue even though the Dab residues are a carbon atom larger in their side-chain compared to the Dap residues (Dab peptide (D86) retention time 115.8 min compared to Dap peptide (D105) retention time of 127.9 min). This can be explained by the Dab residues stabilizing the α-helical structure considerably more than Dap residues.

[3] = Peptide self-association by temperature profiling in RP-HPLC; type: physicochemical; settings: for PA: self-association parameter relative to random coil control peptide RC; for Tp: temperature at which maximum retention time is observed, 5-77° C.
Procedure: Retention behavior from eight AMPs after normalization to their retention times at 5° C. over the temperature range 5° C. to 41° C. in 2° C. increments or 5° C. to 75° C. in 10° C. increments (methodology details provided in Examples). […] Peptide denotions in FIG. 5 have been abbreviated from those shown in Table 1G; for example, D87(Lys1-6 Arg-1) has been shortened to D87(6 Arg-1). RC is a random coil control peptide used for RP-HPLC temperature profiling. The peptide self-association parameter, PA, represents the maximum change in peptide retention time relative to the random coil peptide, RC (PA values shown in Table 6). […] T., et al. J. Med. Chem. 2019, 62:3354-66.
Hemoglobin release was determined spectrophotometrically at 570 nm.
Peptide self-association, the ability to dimerize/oligomerize in aqueous solution, is a very important parameter to optimize antimicrobial activity and toxicity as measured by hemolytic activity. We have proposed that the monomeric random-coil antimicrobial peptides in aqueous solution are best suited to pass through a polysaccharide capsule, the outer membrane lipopolysaccharide and the cell wall peptidoglycan layer of Gram-negative bacteria prior to penetration into the cytoplasmic membrane, where there is induction of α-helical structure and disruption of membrane structure, cell leakage and death of bacterial cells. In contrast, if the self-association ability of an AMP in aqueous medium is too strong, stable folded dimers/oligomers are formed through interaction of their non-polar faces which decreases the ability of the AMP to dissociate to monomer and the dimer/oligomer to effectively pass through the capsule and cell wall to reach the cytoplasmic membrane. The ability of an AMP to self-associate was determined by a RP-HPLC technique developed in our laboratory, referred to as temperature profiling over the temperature range 5° C. to 80° C. […] These eight AMPs are compared to a random-coil control peptide denoted RC. […] This linear decrease in retention behavior with increasing temperature represents the general effects of temperature due to greater solute diffusivity and enhanced mass transfer between the mobile and stationary phases. The difference in retention time between an amphipathic α-helical antimicrobial peptide and the RC control peptide is a measure of the ability of a peptide to associate. The association parameter, PA is large for AMPs without specificity determinants (Ala 13 and Ala 16) ranging from 12.5 to 28.0 min (Table 6) and is shown by a black arrow in FIG. 5. The association parameter, PA, is dramatically smaller for AMPs with specificity determinants (Lys 13 and Lys 16 in the center of the non-polar face) and range from 0 to 6 min (Table 6). Thus, specificity determinants dramatically lower self-association, which is a desired property of effective AMPs. Effective AMPs have low self-association in aqueous medium to prevent dimerization and thus can more easily pass through the capsule and cell wall as a random coil monomer to reach the cytoplasmic membrane where the AMPs must be able to be induced into α-helical structure by the hydrophobicity of the membrane and disrupt the membrane causing leakage and death of the bacterial cell. We have shown previously that AMPs which strongly self-associate by their hydrophobic face (i.e., that are too hydrophobic on their non-polar face) show weak antimicrobial activity (Chen et al., J. Biol. Chem. 2005, 13:12316-29; Chen et al., Antimicrob. Agents Chemother. 2007, 51:1398-1406).

Row | SMILES | MICGM [1] [µM] | Hydrophobicity pH 2 tR [2] [min] | PA [3] [min] | Tp [3] [°C]
1 | CC(=O)N[C@H](CCCCN)C(=O)N[C@H](CC(C)C)C(=O)N[C@@H](CCN)C(=O)N[C@H](CO)C(=O)N[C@H](CC(C)C)C(=O)N[C@H](CC(C)C)C(=O)N[C@@H](CCN)C(=O)N[C@@H](C(=O)N[C@H](CC(C)C)C(=O)N[C@H](CO)C(=O)N[C@@H](CCN)C(=O)N[C@H](C)C(=O)N[C@H](CCCCN)C(=O)N[C@H](C)C(=O)N[C@H](C)C(=O)N[C@H](CCCCN)C(=O)N[C@H](CC(C)C)C(=O)N[C@@H](CCN)C(=O)N[C@@H](C(=O)N[C@H](CC(C)C)C(=O)N[C@H](CC(C)C)C(=O)N[C@@H](CCN)C(=O)N[C@H](C)C(=O)N[C@H](CC(C)C)C(=O)N[C@H](CO)C(=O)N[C@H](CO)C(N)=O)[C@H](C)O)[C@H](C)O [D102(Lys^1Ser^26-5Dab-1), Ac-KL(L-Dab)SLL(L-Dab)TLS(L-Dab)AKAAKL(L-Dab)TLL(L-Dab)ALS(Ser)-amide] | 0.6 | 113.9 | 0 | 5.0
2 | CC(=O)N[C@H](CCCCN)C(=O)N[C@H](CC(C)C)C(=O)N[C@@H](CN)C(=O)N[C@H](CO)C(=O)N[C@H](CC(C)C)C(=O)N[C@H](CC(C)C)C(=O)N[C@@H](CN)C(=O)N[C@@H](C(=O)N[C@H](CC(C)C)C(=O)N[C@H](CO)C(=O)N[C@@H](CN)C(=O)N[C@H](C)C(=O)N[C@H](CCCCN)C(=O)N[C@H](C)C(=O)N[C@H](C)C(=O)N[C@H](CCCCN)C(=O)N[C@H](CC(C)C)C(=O)N[C@@H](CN)C(=O)N[C@@H](C(=O)N[C@H](CC(C)C)C(=O)N[C@H](CC(C)C)C(=O)N[C@@H](CN)C(=O)N[C@H](C)C(=O)N[C@H](CC(C)C)C(=O)N[C@H](CO)C(=O)N[C@@H](CN)C(N)=O)[C@H](C)O)[C@H](C)O [D105(Lys^1-6Dap-1), Ac-KL(L-Dap)SLL(L-Dap)TLS(L-Dap)AKAAKL(L-Dap)TLL(L-Dap)ALS(L-Dap)-amide] | 1.0 | 127.9 | 3.7 | 16.9
3 | CC(=O)N[C@H](CCCCN)C(=O)N[C@H](CC(C)C)C(=O)N[C@H](CCCN)C(=O)N[C@H](CO)C(=O)N[C@H](CC(C)C)C(=O)N[C@H](CC(C)C)C(=O)N[C@H](CCCN)C(=O)N[C@@H](C(=O)N[C@H](CC(C)C)C(=O)N[C@H](CO)C(=O)N[C@H](CCCN)C(=O)N[C@H](C)C(=O)N[C@H](CCCCN)C(=O)N[C@H](C)C(=O)N[C@H](C)C(=O)N[C@H](CCCCN)C(=O)N[C@H](CC(C)C)C(=O)N[C@H](CCCN)C(=O)N[C@@H](C(=O)N[C@H](CC(C)C)C(=O)N[C@H](CC(C)C)C(=O)N[C@H](CCCN)C(=O)N[C@H](C)C(=O)N[C@H](CC(C)C)C(=O)N[C@H](CO)C(=O)N[C@H](CCCN)C(N)=O)[C@H](C)O)[C@H](C)O [D85(Lys^1-6Orn-1), Ac-KL(Orn)SLL(Orn)TLS(Orn)AKAAKL(Orn)TLL(Orn)ALS(Orn)-amide] |  | 134.7 | 4.1 | 17.3
4 | CC(=O)N[C@H](CCCCN)C(=O)N[C@H](CC(C)C)C(=O)N[C@H](CCCCN)C(=O)N[C@H](CO)C(=O)N[C@H](CC(C)C)C(=O)N[C@H](CC(C)C)C(=O)N[C@H](CCCCN)C(=O)N[C@@H](C(=O)N[C@H](CC(C)C)C(=O)N[C@H](CO)C(=O)N[C@H](CCCCN)C(=O)N[C@H](C)C(=O)N[C@H](CCCCN)C(=O)N[C@H](C)C(=O)N[C@H](C)C(=O)N[C@H](CCCCN)C(=O)N[C@H](CC(C)C)C(=O)N[C@H](CCCCN)C(=O)N[C@@H](C(=O)N[C@H](CC(C)C)C(=O)N[C@H](CC(C)C)C(=O)N[C@H](CCCCN)C(=O)N[C@H](C)C(=O)N[C@H](CC(C)C)C(=O)N[C@H](CO)C(=O)N[C@H](CCCCN)C(N)=O)[C@H](C)O)[C@H](C)O [D84(Lys^1-6Lys-1), Ac-KL(Lys)SLL(Lys)TLS(Lys)AKAAKL(Lys)TLL(Lys)ALS(Lys)-amide] | 0.7 | 138.1 | 5.9 | 21.2
5 | CC(=O)N[C@H](CCCCN)C(=O)N[C@H](CC(C)C)C(=O)N[C@H](CCCNC(=N)N)C(=O)N[C@H](CO)C(=O)N[C@H](CC(C)C)C(=O)N[C@H](CC(C)C)C(=O)N[C@H](CCCNC(=N)N)C(=O)N[C@@H](C(=O)N[C@H](CC(C)C)C(=O)N[C@H](CO)C(=O)N[C@H](CCCNC(=N)N)C(=O)N[C@H](C)C(=O)N[C@H](CCCCN)C(=O)N[C@H](C)C(=O)N[C@H](C)C(=O)N[C@H](CCCCN)C(=O)N[C@H](CC(C)C)C(=O)N[C@H](CCCNC(=N)N)C(=O)N[C@@H](C(=O)N[C@H](CC(C)C)C(=O)N[C@H](CC(C)C)C(=O)N[C@H](CCCNC(=N)N)C(=O)N[C@H](C)C(=O)N[C@H](CC(C)C)C(=O)N[C@H](CO)C(=O)N[C@H](CCCNC(=N)N)C(N)=O)[C@H](C)O)[C@H](C)O [D87(Lys^1-6Arg-1), Ac-KL(Arg)SLL(Arg)TLS(Arg)AKAAKL(Arg)TLL(Arg)ALS(Arg)-amide] |  | 143.2 | 5.9 | 21.2
